# Laboratory results published in PubChem BioAssay AID485294 (National Center for Advancing Translational Sciences (NCATS), 2010).
# About 150 (0.041%) of roughly 370,000 compounds were called active. This list was built around the results that the source calls inconclusive (neither active nor inactive); the mix of calls is not that of the screen. Calls come from the whole dose curve; as a rule, active = well fitted inhibition curve with a large enough effect; inconclusive = small, poorly fitted or top-dose-only effect; inactive = flat fitted curve, though single readings scatter. No potency is given beside an inconclusive call; the fits are too rough.
# Target: Beta-lactamase (Escherichia coli (strain K12)) (UniProt P00811)
# UniProt P00811, sequence (P00811 whole entry, looked up): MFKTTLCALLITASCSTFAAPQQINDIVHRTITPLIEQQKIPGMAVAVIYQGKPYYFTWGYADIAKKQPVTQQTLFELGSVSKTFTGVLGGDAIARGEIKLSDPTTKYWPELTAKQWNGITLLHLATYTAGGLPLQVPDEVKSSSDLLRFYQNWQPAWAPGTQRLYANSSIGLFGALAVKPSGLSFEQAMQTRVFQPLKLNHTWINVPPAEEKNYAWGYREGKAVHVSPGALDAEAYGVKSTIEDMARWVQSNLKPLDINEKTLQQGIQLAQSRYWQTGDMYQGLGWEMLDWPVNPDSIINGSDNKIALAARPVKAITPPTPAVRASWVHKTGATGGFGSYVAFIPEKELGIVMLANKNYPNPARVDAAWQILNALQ
# Assay: qHTS Inhibitors of AmpC Beta-Lactamase (assay with detergent); note: nearly all actives have a fitted effect of over 25% in size
# Settings: AmpC hydrolysis of nitrocefin, absorbance 480 nm, 0.01% Triton; series mostly up to 114 µM
# Summary of the method: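 20 mM phosphate pH 7.0 + 0.01% (detergent screen) or 0.0001% Triton X-100; 5.3 nM AmpC reagent; cpd preinc 15 min RT; nitrocefin (800 uM stock) to start; A480 q20 s × 4 min; Activity was normalised to no-enzyme and no-compound control wells.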
# Potency is the fitted concentration of half-maximal effect; tags give direction and shape of the fitted curve.
row,SMILES,Potency
1,Cc1ccc(-n2c(C)nc3c(cnn3-c3ccc(C)c(C)c3)c2=O)cc1C,"inconclusive [inhibitor, partial curve]"
2,Cc1cc(C(F)F)n2nc(C(=O)NCc3ccccc3F)nc2n1,"inconclusive [inhibitor, full curve, poor fit]"
3,COc1cccc(C(C2C(=O)CC(C)(C)CC2=O)C2C(=O)CC(C)(C)CC2=O)c1,inactive
4,COc1ccc2[nH]c(=O)c(C(c3nnnn3C(C)(C)C)N(Cc3ccco3)CC3CCCO3)cc2c1 (stereo not given),inactive
5,CCCCn1c(N)c(N(CC(C)C)C(=O)c2ccc3c(c2)NC(=O)C(C)S3)c(=O)[nH]c1=O (stereo not given),inactive
6,O=C(O)c1[nH]c2ccccc2c1CC(=O)N1CCOCC1,"inconclusive [inhibitor, single point]"
7,O=C(CCNC(=O)OCc1ccccc1)NC1CCCCC1,"inconclusive [inhibitor, single point]"
8,COc1ccc(-c2noc(CN(C(=O)C(C)Oc3ccc(C)cc3)C(C)C)n2)cc1 (stereo not given),inactive
9,COc1ccc(C2=NOC(C(=O)N3CCN(C(=O)c4ccco4)CC3)C2)cc1OC (stereo not given),"inconclusive [inhibitor, full curve]"
10,CC1CC(=O)N(CC(=O)Nc2ccc3c(c2)OCO3)c2ccccc2S1 (stereo not given),"inconclusive [inhibitor, full curve, poor fit]"
11,Cc1nccn1Cc1ccc(Cl)nc1,"inconclusive [inhibitor, full curve, poor fit]"
12,CN(Cc1ccon1)C(=O)CC1C(=O)NCCN1Cc1ccccc1C(F)(F)F (stereo not given),"inconclusive [inhibitor, partial curve]"
13,CCn1cc(C(=O)NCc2ccccn2)c(=O)c2cc(S(=O)(=O)N3CCCCC3)ccc21,inactive
14,CC(=O)Nc1ccc(S(=O)(=O)N(C)CC(=O)OCC(=O)N2CCCCCC2)cc1,"inconclusive [inhibitor, full curve, poor fit]"
15,O=C(COC(=O)c1cccc(NS(=O)(=O)c2ccc(F)c(F)c2)c1)NC(=O)NC1CCCC1,"inconclusive [inhibitor, full curve, poor fit]"
16,COC(=O)c1ccc(Nc2cc(C)nc3ncnn23)cc1,"inconclusive [inhibitor, full curve, poor fit]"
17,Cc1c(NC(=S)Nc2ccc(Cl)cc2)c(=O)n(-c2ccccc2)n1C,"inconclusive [inhibitor, single point]"
18,O=c1cc(CSc2ccc(Cl)cc2)nc2nc[nH]n12,"inconclusive [inhibitor, single point]"
19,CN1C(=O)/C(=C\c2ccccc2OCc2ccccc2)SC1=S,inactive
20,CC(=O)c1c(C)[nH]c(C(=O)OCC(=O)Nc2ccc(Cl)c(S(=O)(=O)N(C)C)c2)c1C,inactive
21,CCCN1CNC(=S)N(c2ccccc2C)C1,"inconclusive [inhibitor, single point]"
22,COc1cccc(NC(=O)c2ccc3c(c2)N(CC(=O)N2CCCCC2)C(=O)C(C)(C)O3)c1,"inconclusive [inhibitor, full curve, poor fit]"
23,COC(=O)c1cc(C#N)c(Oc2ccc(F)cc2)nc1C,"inconclusive [inhibitor, single point]"
24,CCOC(=O)c1oc2c(CN3CCN(C)CC3)c(O)ccc2c(=O)c1-c1ccccc1OC,"inconclusive [inhibitor, full curve, poor fit]"

row,SMILES,Potency
1,COc1ccc(NC(=O)NNC(=O)C(C)Oc2ccc3ccccc3c2)cc1OC (stereo not given),"inconclusive [inhibitor, full curve, poor fit]"
2,S=C(NCCCn1ccnc1)Nc1ccc(Cl)cc1Cl,inactive
3,COc1cccc(/C=N/NC(=O)CCn2nnc3ccccc32)c1,"inconclusive [inhibitor, full curve, poor fit]"
4,S=c1[nH]nc(-c2cc(-c3ccccc3)n[nH]2)n1/N=C/C(Br)=C/c1ccccc1,inactive
5,Cc1ccc(C)c(NC(=S)N2CCN(S(=O)(=O)c3ccccc3)CC2)c1,"inconclusive [inhibitor, partial curve, poor fit]"
6,C#CCNC(=O)C1=C[C@@H](C(C)(C)C)C[C@@H](OCc2ccc(CO)cc2)O1,inactive
7,CC(C)(C)C(=O)NCCc1nc2ccccc2n1CC(=O)c1ccccc1,"inconclusive [inhibitor, full curve, poor fit]"
8,COc1cc(C(=O)N2CCN(c3ncnc4sc(C)c(C)c34)CC2)cc(OC)c1OC,"inconclusive [inhibitor, full curve]"
9,CN(Cc1cccc2cnccc12)C(=O)c1cc(COc2ccc(F)cc2Cl)on1,"inconclusive [inhibitor, partial curve]"
10,c1cncc(-c2nc(-c3ccco3)cs2)c1,"inconclusive [inhibitor, full curve]"
11,Cc1noc(C)c1C(=O)NCCCN1CCCC1=O,"inconclusive [inhibitor, full curve]"
12,CCOC(=O)c1ccc(NC(=O)NC2CC3CCC(C2)N3Cc2nnnn2Cc2ccco2)cc1 (stereo not given),"inconclusive [inhibitor, full curve, poor fit]"
13,COc1ccc2c(c1)Sc1ccccc1N2,"inconclusive [inhibitor, full curve]"
14,CN(C(=S)NC(=O)Cc1ccccc1)c1ccccc1,inactive
15,O=S(=O)(c1ccccc1)c1nc(-c2ccc(F)cc2)oc1NCC1CCCO1 (stereo not given),inactive
16,Cc1csc(N)n1,inactive
17,Cc1ccc(C(=O)N(CC(=O)NC2CCCC2)c2cccc(F)c2)s1,"inconclusive [inhibitor, full curve, poor fit]"
18,NS(=O)(=O)c1ccc(CCNC(=O)c2cc(-c3cc(Cl)ccc3O)n[nH]2)cc1,inactive
19,CSc1ncc(Cl)c(C(=O)N(Cc2ccc(C)cc2)C2CCS(=O)(=O)C2)n1 (stereo not given),inactive
20,Cc1ccc(Cn2c(Sc3nccc(C)n3)nc3c2c(=O)[nH]c(=O)n3C)cc1,"inconclusive [inhibitor, partial curve]"
21,CN(CC(=O)Nc1cccc(F)c1)C(=O)c1cccnc1Sc1ccccc1,"inconclusive [inhibitor, full curve]"
22,O=c1[nH]c2ccccc2nc1NCc1ccccc1,"inconclusive [inhibitor, full curve, poor fit]"
23,COc1cc(NS(=O)(=O)c2ccc(-c3ccc(=O)[nH]n3)o2)cc(OC)c1OC,"inconclusive [inhibitor, full curve]"
24,Cc1ccc(OCC(=O)Nc2ccc3c(c2)nc(CCN2CCCCC2)n3C)cc1,"inconclusive [inhibitor, full curve, poor fit]"

row,SMILES,Potency
1,Cc1nnc(NC(=O)C2CCN(S(=O)(=O)c3ccc(F)c(Cl)c3)CC2)o1,inactive
2,O=C(Nc1csc([N+](=O)[O-])c1)Nc1ccccc1Cl,inactive
3,CCOCc1cc(CN2CCN(c3ccccc3OC)CC2)c(O)c2ncccc12,inactive
4,O=C(c1nc2n(n1)C(c1ccc(Cl)cc1)C=C(c1ccccc1)N2)N1CCOCC1 (stereo not given),inactive
5,CO/N=C(\Cn1ncc(NC2CCCCC2)c(Br)c1=O)c1ccc(Cl)cc1,"inconclusive [inhibitor, full curve]"
6,COc1cccc(/C=N/NC(N)=S)c1OCc1cccc(Cl)c1,inactive
7,CCCC(C(=O)NC1CCCC1)N(Cc1cccs1)C(=O)c1snc(C(N)=O)c1N (stereo not given),"inconclusive [inhibitor, full curve, poor fit]"
8,CC(=O)N1N=C(c2ccc(C)cc2)OC1c1ccc(C)cc1 (stereo not given),"inconclusive [inhibitor, full curve, poor fit]"
9,CCOc1cccc2sc(N(CCN(C)C)C(=O)c3cc4ccccc4cc3OC)nc12,inactive
10,COc1ccc(C(=O)/C=C/c2cn(CC(O)CN3CCc4ccccc43)c3ccccc23)cc1 (stereo not given),inactive
11,COc1ccc(C(=O)Nc2ccc(Cl)cc2C(=O)N2CCOCC2)cc1,inactive
12,COc1cc(Nc2nc(SCc3ccccc3Cl)nc3ccccc23)cc(OC)c1,inactive
13,Cc1ccc([N+](=O)[O-])c(OCC(=O)OCC(=O)c2ccccc2)c1,"inconclusive [inhibitor, single point]"
14,COc1cccc(NC(=O)c2oc3ccccc3c2NC(=O)C2CCCCC2)c1,inactive
15,CC(C)(C)c1ccc(CN2C(=O)CSC2=O)cc1,"inconclusive [inhibitor, single point]"
16,Cc1nn(C(C)C(=O)NCc2ccccc2F)c(=O)c2nn(-c3ccccc3)c(C)c12 (stereo not given),"inconclusive [inhibitor, full curve, poor fit]"
17,COC(=O)COC(=O)c1ccccc1NC(=O)c1ccccc1,inactive
18,CC(C)NC(=O)CSc1ccccc1C(=O)NCc1ccc2c(c1)OCO2,"inconclusive [inhibitor, full curve, poor fit]"
19,Cc1[nH]c2ccccc2c1N=Nc1c(C)n(C)n(-c2ccccc2)c1=O,"inconclusive [inhibitor, full curve, poor fit]"
20,O=C(NNC(=O)c1ccc(-c2ccccc2)cc1)Nc1ccccc1F,"inconclusive [inhibitor, partial curve, poor fit]"
21,Cc1cnc(C(=O)Nc2ccc(S(=O)(=O)N(C(C)C)C(C)C)cc2)cn1,inactive
22,COc1ccc(NC(=O)CSc2nnc(Cc3cccn3C)n2-c2ccc(F)cc2)cc1,"inconclusive [inhibitor, full curve, poor fit]"
